# This excerpt belongs to a sample that is enriched for the strongest signals.
# B1: Langerin (Homo sapiens) (protein)
# chain: LDYPRFMGTISDVKTNVQLLKGRVDNISTLDSEIKKNSDGMEAAGVQIQMVNESLGYVRSQFLKLKTSVEKANAQIQILTRSWEEVSTLNAQIPELKSDLEKASALNTKIRALQGSLENMSKLLKRQNDILQVVSQGWKYFKGNFYYFSLIPKTWYSAEQFCVSRNSHLTSVTSESEQEFLYKTAGGLIYWIGLTKAGMEGDWSWVDDTPFNKVQSARFWIPGEPNNAGNNEHCGNIKAPSLQAWNDAPCDKTFLFICKRPYVPSEPV[in this place human IgG1 Fc]
# Key:
# Assay in all cases: glycan array binding signal (z-score within array); higher = stronger binding
# Details in all cases: glycan notation: IUPAC condensed, linker removed
# Fuc(a1-2)Gal(b1-3)GalNAc = molecular target: Fuc(a1-2)Gal(b1-3)GalNAc
# Procedure, shortened: (§1)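 The binding signal is a Z-score computed within each array. Data were drawn from 3228 arrays in the Consortium for Functional Glycomics database, restricted to those with a known protein sequence. Scores were averaged over arrays of the same protein sequence at different concentrations or buffers, and over linkers, and negative values can be taken as non-binding.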
# [1] = molecular target: Fuc(a1-2)Gal(b1-3)[Fuc(a1-4)]GlcNAc(b1-2)Man(a1-3)[Fuc(a1-2)Gal(b1-3)[Fuc(a1-4)]GlcNAc(b1-2)Man(a1-3)]Man(b1-4)GlcNAc(b1-4)GlcNAc
# Procedure, shortened: as §1
# [2] = molecular target: Fuc(a1-2)Gal(b1-4)GlcNAc(b1-2)Man(a1-3)[Fuc(a1-2)Gal(b1-4)GlcNAc(b1-2)Man(a1-6)]Man(b1-4)GlcNAc(b1-4)GlcNAc
# Procedure, shortened: as §1
# [3] = molecular target: Fuc(a1-2)Gal(b1-4)GlcNAc(b1-2)Man(a1-3)[Fuc(a1-2)Gal(b1-4)GlcNAc(b1-2)Man(a1-6)]Man(b1-4)GlcNAc(b1-4)[Fuc(a1-6)]GlcNAc
# Procedure, shortened: as §1
# [4] = molecular target: Fuc(a1-2)Gal(b1-4)GlcNAc(b1-3)Gal(b1-4)GlcNAc(b1-2)Man(a1-3)[Fuc(a1-2)Gal(b1-4)GlcNAc(b1-3)Gal(b1-4)GlcNAc(b1-2)Man(a1-6)]Man(b1-4)GlcNAc(b1-4)GlcNAc
# Procedure, shortened: as §1
# [5] = molecular target: Fuc(a1-2)[Gal(a1-3)]Gal(b1-4)GlcNAc(b1-2)Man
# Procedure, shortened: as §1
# [6] = molecular target: Fuc(a1-2)[GalNAc(a1-3)]Gal(b1-3)GlcNAc(b1-2)Man(a1-3)[Fuc(a1-2)[GalNAc(a1-3)]Gal(b1-3)GlcNAc(b1-2)Man(a1-6)]Man(b1-4)GlcNAc(b1-4)GlcNAc
# Procedure, shortened: as §1
# [7] = molecular target: Fuc(a1-3)[Gal(b1-4)]GlcNAc(b1-2)Man(a1-3)[Fuc(a1-3)[Gal(b1-4)]GlcNAc(b1-2)Man(a1-6)]Man(b1-4)GlcNAc(b1-4)[Fuc(a1-6)]GlcNAc
# Procedure, shortened: as §1
# Gal(a1-3)Gal(b1-4)GlcNAc = molecular target: Gal(a1-3)Gal(b1-4)GlcNAc
# Procedure, shortened: as §1
# [8] = molecular target: Gal(b1-3)GalNAc(a1-3)[Fuc(a1-2)]Gal(b1-4)GlcNAc
# Procedure, shortened: as §1
# Gal(b1-3)GalNAc(b1-3)Gal = molecular target: Gal(b1-3)GalNAc(b1-3)Gal
# Procedure, shortened: as §1
# [9] = molecular target: Gal(b1-3)GlcNAc(b1-3)Gal(b1-4)GlcNAc(b1-3)Gal(b1-4)GlcNAc(b1-2)[Gal(b1-3)GlcNAc(b1-3)Gal(b1-4)GlcNAc(b1-3)Gal(b1-4)GlcNAc(b1-6)]Man(a1-6)[Gal(b1-3)GlcNAc(b1-3)Gal(b1-4)GlcNAc(b1-3)Gal(b1-4)GlcNAc(b1-2)Man(a1-3)]Man(b1-4)GlcNAc(b1-4)[Fuc(a1-6)]GlcNAc
# Procedure, shortened: as §1
# [10] = molecular target: Gal(b1-3)GlcNAc(b1-3)Gal(b1-4)GlcNAc(b1-6)[Gal(b1-3)GlcNAc(b1-3)]Gal(b1-4)Glc
# Procedure, shortened: as §1
# [11] = molecular target: Gal(b1-3)[Fuc(a1-4)]GlcNAc
# Procedure, shortened: as §1
# [12] = molecular target: Gal(b1-4)GalNAc(a1-3)[Fuc(a1-2)]Gal(b1-4)GlcNAc
# Procedure, shortened: as §1
# [13] = molecular target: Gal(b1-4)GlcNAc(b1-2)Man(a1-3)[Gal(b1-4)GlcNAc(b1-2)Man(a1-6)][GlcNAc(b1-4)]Man(b1-4)GlcNAc(b1-4)[Fuc(a1-6)]GlcNAc
# Procedure, shortened: as §1
# [14] = molecular target: Gal(b1-4)GlcNAc(b1-3)Gal(b1-3)GlcNAc
# Procedure, shortened: as §1
# [15] = molecular target: Gal(b1-4)GlcNAc(b1-3)Gal(b1-4)GlcNAc(b1-3)Gal(b1-4)GlcNAc(b1-2)[Gal(b1-4)GlcNAc(b1-3)Gal(b1-4)GlcNAc(b1-3)Gal(b1-4)GlcNAc(b1-6)]Man(a1-6)[Gal(b1-4)GlcNAc(b1-3)Gal(b1-4)GlcNAc(b1-3)Gal(b1-4)GlcNAc(b1-2)Man(a1-3)]Man(b1-4)GlcNAc(b1-4)[Fuc(a1-6)]GlcNAc
# Procedure, shortened: as §1
# [16] = molecular target: Gal(b1-4)GlcNAc(b1-3)Gal(b1-4)GlcNAc(b1-3)Gal(b1-4)GlcNAc(b1-3)Gal(b1-4)GlcNAc(b1-3)Gal(b1-4)GlcNAc(b1-2)[Gal(b1-4)GlcNAc(b1-3)Gal(b1-4)GlcNAc(b1-3)Gal(b1-4)GlcNAc(b1-3)Gal(b1-4)GlcNAc(b1-3)Gal(b1-4)GlcNAc(b1-6)]Man(a1-6)[Gal(b1-4)GlcNAc(b1-3)Gal(b1-4)GlcNAc(b1-3)Gal(b1-4)GlcNAc(b1-3)Gal(b1-4)GlcNAc(b1-3)Gal(b1-4)GlcNAc(b1-2)Man(a1-3)]Man(b1-4)GlcNAc(b1-4)[Fuc(a1-6)]GlcNAc
# Procedure, shortened: as §1
# [17] = molecular target: Gal(b1-4)GlcNAc(b1-3)GalNAc
# Procedure, shortened: as §1
# [18] = molecular target: Gal(b1-4)GlcNAc(b1-6)[Gal(b1-4)GlcNAc(b1-3)]GalNAc
# Procedure, shortened: as §1
# Gal(b1-4)GlcNAc6P = molecular target: Gal(b1-4)GlcNAc6P
# Procedure, shortened: as §1
# Gal6P(b1-4)GlcNAc = molecular target: Gal6P(b1-4)GlcNAc
# Procedure, shortened: as §1
# Gal6S(b1-3)GlcNAc6S = molecular target: Gal6S(b1-3)GlcNAc6S
# Procedure, shortened: as §1
# Gal6S(b1-4)GlcNAc6S = molecular target: Gal6S(b1-4)GlcNAc6S
# Procedure, shortened: as §1
# GalNAc(a1-3)Gal = molecular target: GalNAc(a1-3)Gal
# Procedure, shortened: as §1
binder,measurement,setting,value
B1,glycan array binding signal (z-score),Fuc(a1-2)Gal(b1-3)GalNAc,-0.628
same,glycan array binding signal (z-score),[1],0.978
same,glycan array binding signal (z-score),[2],1.81
same,glycan array binding signal (z-score),[3],1.48
same,glycan array binding signal (z-score),[4],2.11
same,glycan array binding signal (z-score),[5],-0.776
same,glycan array binding signal (z-score),[6],2.03
same,glycan array binding signal (z-score),[7],-0.718
same,glycan array binding signal (z-score),Gal(a1-3)Gal(b1-4)GlcNAc,-0.431
same,glycan array binding signal (z-score),[8],-0.623
same,glycan array binding signal (z-score),Gal(b1-3)GalNAc(b1-3)Gal,-1
same,glycan array binding signal (z-score),[9],2.15
same,glycan array binding signal (z-score),[10],-0.977
same,glycan array binding signal (z-score),[11],-0.455
same,glycan array binding signal (z-score),[12],-0.804
same,glycan array binding signal (z-score),[13],-1.11
same,glycan array binding signal (z-score),[14],-0.815
same,glycan array binding signal (z-score),[15],0.964
same,glycan array binding signal (z-score),[16],1
same,glycan array binding signal (z-score),[17],-0.738
same,glycan array binding signal (z-score),[18],-0.928
same,glycan array binding signal (z-score),Gal(b1-4)GlcNAc6P,-0.56
same,glycan array binding signal (z-score),Gal6P(b1-4)GlcNAc,-0.799
same,glycan array binding signal (z-score),Gal6S(b1-3)GlcNAc6S,2.04
same,glycan array binding signal (z-score),Gal6S(b1-4)GlcNAc6S,2.2
same,glycan array binding signal (z-score),GalNAc(a1-3)Gal,-0.655

# Reference: the supplement of paper PMC8728848
